About 2,200 (0.71%) of roughly 310,000 compounds showed an effect of 50% or more. Effects have a minus sign here. The list shows a part of the results.
Each compound was assayed against human ether-à-go-go-related gene (hERG) potassium channel (human, UniProt Q12809) (assay: primary screen, population patch clamp on CHO cells stably expressing hERG).
Chain of human ether-à-go-go-related gene (hERG) potassium channel (Q12809 whole entry, looked up): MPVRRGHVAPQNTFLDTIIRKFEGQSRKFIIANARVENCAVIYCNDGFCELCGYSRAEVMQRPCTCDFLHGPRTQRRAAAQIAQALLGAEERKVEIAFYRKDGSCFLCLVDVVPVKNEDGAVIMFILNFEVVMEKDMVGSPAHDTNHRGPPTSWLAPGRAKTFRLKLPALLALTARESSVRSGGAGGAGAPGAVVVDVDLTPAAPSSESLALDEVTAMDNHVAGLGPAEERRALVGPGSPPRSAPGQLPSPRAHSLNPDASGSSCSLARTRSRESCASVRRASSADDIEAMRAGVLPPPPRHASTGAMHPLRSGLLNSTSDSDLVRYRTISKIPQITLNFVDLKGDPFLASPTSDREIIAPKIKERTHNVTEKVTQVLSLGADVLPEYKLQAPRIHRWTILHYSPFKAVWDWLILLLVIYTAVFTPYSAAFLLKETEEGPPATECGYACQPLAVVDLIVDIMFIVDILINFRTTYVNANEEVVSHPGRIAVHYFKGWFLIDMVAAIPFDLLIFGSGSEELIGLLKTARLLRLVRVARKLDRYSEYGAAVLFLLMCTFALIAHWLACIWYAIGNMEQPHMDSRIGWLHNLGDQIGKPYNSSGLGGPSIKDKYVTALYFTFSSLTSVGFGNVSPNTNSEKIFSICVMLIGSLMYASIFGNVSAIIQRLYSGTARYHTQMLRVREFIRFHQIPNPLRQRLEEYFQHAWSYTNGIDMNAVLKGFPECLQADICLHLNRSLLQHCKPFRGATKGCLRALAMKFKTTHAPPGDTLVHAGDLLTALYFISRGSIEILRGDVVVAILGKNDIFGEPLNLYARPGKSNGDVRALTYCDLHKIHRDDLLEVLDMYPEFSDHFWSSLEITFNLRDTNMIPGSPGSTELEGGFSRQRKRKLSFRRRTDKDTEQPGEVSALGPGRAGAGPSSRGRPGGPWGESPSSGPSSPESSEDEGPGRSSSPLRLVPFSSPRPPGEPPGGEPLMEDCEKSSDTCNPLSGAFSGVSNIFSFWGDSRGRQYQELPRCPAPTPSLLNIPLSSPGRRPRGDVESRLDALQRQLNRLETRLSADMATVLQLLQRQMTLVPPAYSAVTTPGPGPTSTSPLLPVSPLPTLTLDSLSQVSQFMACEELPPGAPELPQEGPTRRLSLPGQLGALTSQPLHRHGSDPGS

Structure (SMILES) | hERG current change (%, negative = inhibition) at 1uM [%]
CC(=O)Nc1cccc(Oc2ncnc3scc(-c4ccccc4)c23)c1 | 14.9
Cc1ccc2c(c1)c1ncn(CCC3=CCCCC3)c(=O)c1n2C | 14.7
O=C(COc1cccc2c1CCN(Cc1ccc(Br)cc1)C2=O)N1CCOCC1 | -14.7
O=c1cc(/C=C/c2c(F)cccc2Cl)[nH]c2ccccc12 | 11.4
COc1ccc(C(=O)/C=C/C(=O)N(Cc2ccc(F)cc2)C(C(=O)NC2CCCCC2)c2ccncc2)c(O)c1 (centres unmarked) | 9.43
CCn1nc(C(C)C(=O)O)c2ccccc2c1=O (centres unmarked) | 11.5
Cn1cc(C=O)c2ccccc21 | 17.6
C=CCn1c(COc2ccc(Cl)cc2)nnc1SCC(=O)c1c(N)n(C)c(=O)n(C)c1=O | 10.5
Cc1cc(C)n2nc(SCC(=O)N(C(C)C)C(C)C)nc2n1 | 14.5
N#CC1=C(N)C(C#N)(C#N)C(c2ccc[nH]2)C2CCCC=C12 (centres unmarked) | 8.66
CCN(CC(=O)Nc1ccccc1OC)C(=O)CCOc1ccc(C(C)(C)C)cc1 | 0.486
COc1ccc(-c2oc3ncn4nc(Cc5ccccc5)nc4c3c2-c2ccc(OC)cc2)cc1 | 4.54
Cc1cc(O)c(C(C)C)cc1N=Cc1cc([N+](=O)[O-])ccc1O | 1.93
N#Cc1c(-c2ccccc2)cc(C2CC2)nc1N | 12
CC1CCN(c2ccc(C(=O)O)cc2NS(=O)(=O)c2ccc(Br)cc2)CC1 | 7.03
CC(=O)Nc1nc2ccc(S(=O)(=O)N3CCCCC3)cc2s1 | 2.04
CC1(C)CC2(CC(C)(C)NC(=O)N2)NC(=O)N1 | 9.95
CN(CCc1ccccc1)Cc1ccccc1[N+](=O)[O-] | 8.18
COc1ccc(OCC(O)Cn2cnc(-c3ccc(Br)cc3)c2)cc1 (centres unmarked) | 14.7
Cc1cc(NC(=O)CCSc2nc(-c3ccco3)cc(C(F)(F)F)n2)n(-c2ccccc2)n1 | 4.71
COc1ccccc1-n1cc(-c2ccc(C)cc2)[nH]c1=S | 12.6
c1cc(Nc2ncnc3sccc23)cc(-c2nnc3n2CCCCC3)c1 | 7.25

Structure (SMILES) | hERG current change (%, negative = inhibition) at 1uM [%]
CSCCC(NC(=O)c1ccc(Cl)cc1)C(=O)OCC(C)=O (centres unmarked) | 20.9
O=C(Nc1nnc(SCCC2OCCO2)s1)C1CC(=O)N(c2ccc(F)cc2)C1 (centres unmarked) | 8.16
COc1ccc(NC(=O)/C(C#N)=C/c2cc(C)n(-c3ccc(N4CCOCC4)c([N+](=O)[O-])c3)c2C)cc1 | 4.07
O=S(=O)(NCc1csc(-c2cccs2)n1)c1ccccc1 | 9.16
O=C(CCNC(=O)c1ccccc1Cl)Nc1nc2ccc(F)cc2s1 | 5.63
O=C(NNc1c(Cl)cc(Cl)cc1Cl)c1cccc([N+](=O)[O-])c1 | 14.7
O=C(Nc1ccc(S(=O)(=O)N2CCOCC2)cc1)C1CCN(S(=O)(=O)c2ccccc2)CC1 | 1.78
O=C(COc1ccc(S(=O)(=O)N2CCOCC2)cc1)NC1CC1 | 17.6
COc1ccc(Cl)cc1C(=O)Nc1ccc2c(c1)OCO2 | 5.64
N#Cc1ccccc1OCCN1C(=O)c2ccccc2C1=O | 8.99
Cc1cc2c3c(ccc(C)c3n1)N=CN2c1ccccc1 | -10.8
CCCSc1nnc(Nc2ccccc2C)s1 | -2.76
CCc1ccccc1NC(=O)c1ccc(NS(C)(=O)=O)cc1 | -10.5
COc1ccc(C(=O)N2N=C(c3cccc(NS(C)(=O)=O)c3)CC2c2cccs2)cc1 (centres unmarked) | -22.1
CCOC(=O)Cn1c(=NC(=O)c2cc(-c3cccs3)nc3ccccc23)sc2cc(S(N)(=O)=O)ccc21 | 17.1
COc1ccc(NC(=O)CN(c2ccccc2)S(=O)(=O)c2ccccc2)c(OC)c1 | 3.74
CCOc1ccccc1N(C)C(=O)CCS(=O)(=O)c1ccc2c(c1)NC(=O)C(C)S2 (centres unmarked) | 6.44
CN(C)CCNC(=O)c1cc2c(s1)-c1ccc(Cl)cc1SC2 | -19.8
C=CCn1c(=O)c2ccccc2n2c(SCc3csc(-c4ccccc4)n3)nnc12 | -1.51
CCOC(=O)C1CCN(C(=O)CCCn2nc(C)c3c(C)n(-c4ccc(C)cc4)nc3c2=O)CC1 | 2.54
CC(=O)c1ccc(NC(=O)c2ccc(CNc3c(N4CCOCC4)c(=O)c3=O)cc2)cc1 | 5.01
Cc1ccc(Cl)cc1NC(=O)c1cccc(OC(F)F)c1 | 8.47

Structure (SMILES) | hERG current change (%, negative = inhibition) at 1uM [%]
CCc1ccc2oc(C(=O)N3CCN(C)CC3)cc(=O)c2c1 | -17.8
CC(C)NC(=O)Cn1cc(C#N)c2cc(Br)ccc21 | 7.96
CC(=NCCCN1CCOCC1)c1c(O)n(-c2ccccc2C)c(=O)[nH]c1=O | 8.16
CCOc1ccc(N(CC(=O)Nc2ccc(C)c(Cl)c2)S(C)(=O)=O)cc1 | 10.4
CC(C)OC(=O)c1cccc(C(=O)Oc2ccc(Br)cc2)n1 | -1.27
CS(=O)(=O)N(CC(=O)N/N=C/c1ccc(OCC(=O)N2CCOCC2)cc1)c1ccccc1Cl | 1.46
CC(C)SCc1cc(N2CCCC2)nc(-c2ccccc2)n1 | 10.6
COCC1CCN(Cc2cn[nH]c2-c2cc(OC)c(OC)c(OC)c2)CC1 | -1.36
O=C(O)c1cc([N+](=O)[O-])c(NCCC2=CCCCC2)c([N+](=O)[O-])c1 | 11.1
CCN(CC)C(=S)SCC(=O)Nc1cccc(C(F)(F)F)c1 | 7.53
CCCCN(CC)C(=O)CSc1cc(=O)n(C)c2ccccc12 | 3.56
CCSc1nccc(-c2nn(-c3ccc(C)cc3)ccc2=O)n1 | 5.36
CC1=C/C(=C\C=C(C#N)C#N)N(C)c2ccccc21 | 11.8
COc1ccc(CCNc2nc3ccccc3n3cnnc23)cc1OC | 10.7
CCOC(=O)N1CCN(C(=O)C2CCN(S(=O)(=O)c3ccccc3)CC2)CC1 | -2.91
Cc1ccc(CS/C(Nc2ccccc2C)=C(\C#N)C(=O)NCc2ccco2)c(C)c1 | 6.63
CCn1c2ccccc2c2cc(NC(=O)COC(=O)C3CCC(=O)N3)ccc21 (centres unmarked) | 2.48
CCn1nnc2cc(C(=O)Nc3cccc(S(=O)(=O)N(C)C)c3)ccc21 | 7.54
CCCCCCSc1ccc([C@H]2N[C@@](Cc3ccccc3)(C(=O)OC)[C@H]3C(=O)N(CC)C(=O)[C@@H]23)cc1.O=C(O)C(F)(F)F | 1.76
Cc1ccccc1OCC(=O)N1CCN(C(=O)COc2ccccc2C)CC1 | 10.5
Nc1nc(NC(=O)CCC(=O)O)nn1-c1ccccc1 | 12.5
C/C(=N\NC(=O)c1cccc([N+](=O)[O-])c1)c1cccnc1 | 10.9

Structure (SMILES) | hERG current change (%, negative = inhibition) at 1uM [%]
O=C(CCc1nnc2n(Cc3ccc(F)cc3)c(=O)c3ccccc3n12)NCCN1CCOCC1 | 6.1
CCCCNc1cc(Cl)nc(N)n1 | 14.4
Cc1ccc2c(c1)[nH]c1c(=O)n(Cc3ccccn3)cnc12 | 15.1
NC(N)=N/N=C/c1ccc(Cl)c(Cl)c1 | 1.47
COc1cc(/C=N/Nc2ccc(Cl)c(C(=O)O)c2)ccc1OC(=O)c1ccccc1F | 5.98
COCCCn1c(=O)c2sccc2n2c(CCCC(=O)NCc3ccccc3)nnc12 | 12.7
Cn1c(C(=O)N2CCCC(C(=O)NCCCSC3CCCCC3)C2)cc2sccc21 (centres unmarked) | -2.93
O=C(CNC1CCCCC1)N1CCC2(CC1)OCCO2.O=C(O)C(=O)O | 11.7
O=C(COc1ccc(F)cc1)Nc1ccc(S(=O)(=O)Nc2ncccn2)cc1 | -1.59
Cc1nc(NC(C)c2ccccc2)c2c3c(sc2n1)CCC3 (centres unmarked) | -16.3
CCOc1ccc(CN2C(=O)c3ccccc3C2=O)cc1C(=O)Nc1nnc(SCC)s1 | 11
C=CCn1c(SCc2csc(C)n2)nc2sc3c(c2c1=O)CCCCC3 | -11.8
O=C(NCC(c1ccco1)N1CCc2ccccc21)C(=O)Nc1ccccc1F (centres unmarked) | -20.4
Cc1ccc(S(=O)(=O)N2CCN(C(=O)Cc3ccsc3)CC2)c(C)c1 | -10.3
C=CCOc1ccc(-c2nc3c(c(=O)[nH]c(=O)n3CCCC)n2C)cc1Br | -8.52
CCOc1ccc(CCNC(=O)c2ccc(CS(=O)Cc3ccccc3Cl)o2)cc1 (centres unmarked) | 4.72
O=C(COC(=O)c1cnccn1)Nc1c(Cl)cc(Cl)cc1Cl | 10.1
COc1ccc(N2CCN(C(=O)Cc3ccc(-n4c(=O)[nH]c5ccccc5c4=O)cc3)CC2)cc1 | 7.1
NS(=O)(=O)c1ccc(NS(=O)(=O)c2ccc(NC(=O)c3ccc(-c4ccccc4)cc3)cc2)cc1 | 7.89
O=C(NC1CC2CCCC(C1)N2S(=O)(=O)c1ccccc1)c1ccco1 (centres unmarked) | 0.747

Reference: PMC4336329 (PLoS ONE, 2015)
